Patent US10004812B2 (priority 2014, dated 2018)

Assays:
[1] = Melting point by dynamic light scattering (zetasizer nano); assay type: physicochemical; settings: thermal stability
Description: (§1) Purified proteins A5-IgG and mE12-IgG were characterized by SDS-PAGE and size exclusion chromatography. Bioactivity was analyzed by ELISA, using recombinant mouse/human ENG and detection of bound antibodies with HRP-conjugated anti-human IgG antibodies. Cell binding was analyzed by flow cytometry, using ENG-positive HT1080 and ENG expressing mouse eEnd2. Melting points were determined by dynamic light scattering using a zetasizer nano. Affinities were determined by QCM using an Attana A100. Internalization study was performed by indirect immunofluorescence confocal microscopy on permeabilized cells, detecting bound and internalized antibodies with a FITC-labeled secondary antibody.

recombinant mouse ENG = target: T1, recombinant mouse ENG (Mus musculus, UniProt Q63961); assay: ELISA binding to recombinant mouse ENG (aa 27-581); settings: not to negative control (BSA); FIG. 1
T1 sequence (Q63961 whole entry, looked up): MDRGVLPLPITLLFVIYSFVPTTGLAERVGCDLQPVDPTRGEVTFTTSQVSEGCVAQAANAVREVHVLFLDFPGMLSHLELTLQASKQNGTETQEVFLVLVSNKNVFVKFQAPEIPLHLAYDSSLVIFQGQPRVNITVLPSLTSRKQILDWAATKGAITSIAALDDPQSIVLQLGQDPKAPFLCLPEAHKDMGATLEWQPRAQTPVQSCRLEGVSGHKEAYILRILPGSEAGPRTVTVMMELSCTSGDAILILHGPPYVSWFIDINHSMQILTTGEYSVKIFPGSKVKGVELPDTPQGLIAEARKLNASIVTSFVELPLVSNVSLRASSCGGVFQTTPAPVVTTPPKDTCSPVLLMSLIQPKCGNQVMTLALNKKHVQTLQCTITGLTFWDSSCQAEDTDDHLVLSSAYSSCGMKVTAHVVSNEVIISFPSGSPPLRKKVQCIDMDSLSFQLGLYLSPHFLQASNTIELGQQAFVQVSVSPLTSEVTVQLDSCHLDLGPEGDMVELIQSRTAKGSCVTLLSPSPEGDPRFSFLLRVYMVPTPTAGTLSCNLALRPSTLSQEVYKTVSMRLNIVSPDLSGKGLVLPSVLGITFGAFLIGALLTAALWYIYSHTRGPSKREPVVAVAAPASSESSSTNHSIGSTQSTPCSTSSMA
Description: Plasmids corresponding to full length IgG1 antibodies were generated and transfected into CHO cells for production of antibodies in Lonza's CHO expressing system with yields of approximately 1 mg/L of cell culture (lab scale). Antibodies were purified from cell culture supernatant by protein A chromatography. Purified proteins were characterized by SDS-PAGE and size exclusion chromatography. Bioactivity was analyzed by ELISA using recombinant ENG and detection of bound antibodies with HRP-conjugated anti-human IgG antibodies. Cell binding was analyzed by flow cytometry using ENG-expressing mouse B16 cell.
Purified anti-muENG mE12 and anti-huENG A5 antibodies were analyzed in ELISA for binding to recombinant ENG and using flow cytometry analysis (FACS).
as §1, with “Internalization study was performed by indirect immunofluorescence confocal microscopy on permeabilized cells, detecting bound and internalized antibodies with a FITC-labeled secondary antibody.” left out

B1: mE12-IgG1: human anti-murine Endoglin IgG1; heavy chain SEQ ID NO: 15, light chain SEQ ID NO: 16 (antibody)
heavy: EVQLVESGGGVVQPGRSLRLSCAASGFTFSSYGMHWVRQAPGKGLVWVSRINSDGSSTSYADSVKGRFTISRDNSKNTLYLQMNSLRAEDTAVYYCARATGTWVMSWGQGTLVTVSSASTKGPSVFPLAPSSKSTSGGTAALGCLVKDYFPEPVTVSWNSGALTSGVHTFPAVLQSSGLYSLSSVVTVPSSSLGTQTYICNVNHKPSNTKVDKKVEPKSCDKTHTCPPCPAPPVAGPSVFLFPPKPKDTLMISRTPEVTCVVVDVSHEDPEVKFNWYVDGVEVHNAKTKPREEQYNSTYRVVSVLTVLHQDWLNGKEYKCKVSNKGLPSSIEKTISKAKGQPREPQVYTLPPSRDELTKNQVSLTCLVKGFYPSDIAVEWESNGQPENNYKTTPPVLDSDGSFFLYSKLTVDKSRWQQGNVFSCSVMHEALHNHYTQKSLSLSPGK
light: SSELIQDPAVSVALGQTVRITCQGDSLRSYYASWYQQKPGQAPVLVIYGKNNRPSGIPDRFSGSSSGNTASLTITGAQAEDEADYYCNSRDSSGTVFGGGTKLTVLGQPKANPTVTLFPPSSEELQANKATLVCLISDFYPGAVTVAWKADGSPVKAGVETTKPSKQSNNKYAASSYLSLTPEQWKSHRSYSCQVTHEGSTVEKTVAPTECS
modifications: Synthetic sequence mE12-IgG1-HC - without signal sequence; Synthetic sequence mE12-IgG1-LC - without signal sequence
Q: What does the source list for B1?
A: Tm (DLS) [1]: 64 °C; binding to recombinant mouse ENG (ELISA), in words (recombinant mouse ENG): concentration-dependent binding
